The list shows a part of the results.
Each sequence was assayed on PF3D7_0420300 AP2 domain 1 (GST-tagged) (assay: gcPBM binding intensity (ln(normalized median fluorescence intensity)); higher = stronger DNA binding).
Procedure, shortened: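 In this array assay, P. falciparum DNA-binding domains with a GST tag, expressed in E. coli, were applied for 1 h to primer-extended double-stranded 36-bp intergenic genomic probes and negative controls on an Agilent 4 × 180k array. Bound protein was visualised with Alexa488 anti-GST antibody at 488 nm. Binding intensity is the highest Masliner-normalised natural-log median intensity across replicate spots of either probe orientation.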

Point of comparison: “TAACAAAACCTTATATGTACACACATATACATCACA [XGTACX_site6772]”, “gcPBM binding intensity (ln)” value 9.61. Against it:
- AATTGCATAATATATTCACACATTTTTAAGTGATAC [CACACA_site5679] — lower, 9.24
- TTATGGTTATACATATGTACATATATATATATATAT [XGTACX_site1494] — lower, 9.29
- ATATTATTTTAAAAAAGTACATTTTTAAGAATTCTT [XGTACX_site6630] — lower, 8.85
- AACATATAAATAAACTGTACATATATATATATATAT [XGTACX_site1056] — lower, 9.17
- AATATTACGTGTTTGGTATTTTTCGATGTTGGCAGG [XGTACX_negctrl_site59] — lower, 9.43
- TCTCAGTAAATTAAATGTACATAAGGGAGGAACTAT [XGTACX_site8045] — lower, 9.44
- TTGTGGATTTTGTGCGCACACACATGCAAAAAGAAA [CACACA_site1147] — lower, 9.4
- TAAATATATGCATATACACACAACAAAAAAATATAT [CACACA_site2341] — higher, 9.85
- CACAGACATATATATACACACTTTTATTTAAATAAC [CACACA_site4962] — lower, 9.54
- AAAAAAAAAATGTGCACACGCGTACACCCAAAAAAA [CACACA_site5149] — lower, 9.48
- TTTTTGTATCCTTCTTCTTTTTCCAGACTACATTAT [XGTACX_negctrl_site216] — lower, 9.34
- TATAAAAATAATATTACACACATGTAAAATGGCTGT [CACACA_site5755] — lower, 9.46
- GTATATATATATATATGTACATATATGTAGATATAT [XGTACX_site5431] — lower, 9.35
- ATATGTACGCAAGGTGCACACTGGTGCATTAAAAAA [CACACA_site1801] — lower, 9.24
- TTTTATTTTTTCTCACGTACAAATATATAATTTTTT [XGTACX_site6952] — lower, 9.22
- ATGAATATAAAATATACACACTTATATATCGAATGA [CACACA_site6240] — lower, 9.31
- TACATATGGCACATATGTACACACGTATAGATAATA [XGTACX_site4123] — lower, 9.19
- AATATATCCTATTCGAACAAAAATACATGCACATAT [CACACA_negctrl_site1058] — lower, 9.4
- CAACCTTTTTTGTTGGTGCATAATTTTTTTTTCTTT — lower, 9.28
- ATATATATATATTGCACACATATAAATATATATATT [CACACA_site807] — lower, 9.39
- AATATATAGCTAAAAACACACAAATATATACTCATA [CACACA_site5904] — higher, 9.67
- ATACATTTTTTTTTCACACATATATATATATTTAAT [CACACA_site5995] — lower, 9.5
- CTCACGTAGCTTGATGCATGCAAACTTGAGTAAAAG [TGCATGCA_site409] — lower, 8.91
- TTTATAAAATTTATTGCACACAATTATTTTATAATT [CACACA_site2489] — lower, 9.1
- CATATACTCGGACACACACACACACCGACAAAAAAA [CACACA_site4433] — higher, 10.1
- TTTTGTGGAGGATGGTGTACGGTATTGTATTATTAC [XGTACX_site1942] — lower, 9.43
- TTTATAGTTTTTAATAGTACACATATTTTTAAGTAT [XGTACX_site5498] — lower, 9.13
- TATCATAAAATATGTAGTACGTATATATATAAAAAT [XGTACX_site5455] — lower, 9.39
- TAAACAGACATACATACACACATACATACAGACATA [CACACA_site6997] — higher, 9.88
- AAAAAAAAAGTATATATATATTTAAGGAATTCTCTC [GTGCAC_negctrl_site454] — lower, 9.14
- TGTTTCCTATTTTGTATGCACTTTTTGTCATAATTA [GTGCAC_site9921] — lower, 9.57
- TAAATAAATAAAAAAACACACATATAAATATAAATA [CACACA_site7815] — the same, 9.61
- TATGTGTGACAAAATTGTACGGTCTCTTTATTTTGT [XGTACX_site2679] — lower, 9.43
- TATACGGACTCTAAGTGTACTTAAAATAATTCAAAC [XGTACX_site3606] — lower, 9.24
- TATATTGCCCTTCACACACACACATATATATATATA [CACACA_site2492] — higher, 10.3
- TAAAAATGTTGACACACACACATAAATATATTTTAT [CACACA_site7227] — higher, 9.74
- ATTTTTATACCTAAGTGTACATGATGTTTTCTTTTT [XGTACX_site973] — lower, 9.52
- TATTATATAATAAAAATTATTATTATTTGTATAAAT [CACACA_negctrl_site195] — lower, 8.83
- CATTTTTAAAAAAATTGTACAAAACATATATGTGTA [XGTACX_site3396] — lower, 9.03
- TTCCTTTTGAACTCTCGTACGCGTAGGTGTTATTAT [XGTACX_site6264] — lower, 9.25
- TATTAAAAGTAAAAAACACACATGGATATATACATA [CACACA_site3959] — higher, 9.62
- AAAAAAAAAAAAAAAAAAAAAAAAATATATATATAT [CACACA_negctrl_site436] — lower, 9.14
- GTTGTGTAATTCGTAACACACATAAAATATAAATAA [CACACA_site7799] — lower, 9.48
- TTACTATATAATATGTGTACACAACATATAATATAT [XGTACX_site1383] — lower, 9.36
- TTTTTTTTTTGATGTTGTACTTATATACTATATAAT [XGTACX_site2778] — lower, 9.41
- GCTTCATTTTAAACTTGTACTTATTTTTTGGTAAAT [XGTACX_site8879] — lower, 9.36
- TAGTTACTTCTTATATAAAATATGTATATAAAAATA [GTGCAC_negctrl_site190] — lower, 8.81
- TTGTTTGTTGTAACGTGTACAGATAAAAATAAAGGG [XGTACX_site375] — lower, 9.28
- TTCATATTATAGTGCACACAAAAATATATATATGGT [CACACA_site2855] — lower, 9.48
- ACATATTAATTATAAAGTACATATATATATATATAT [XGTACX_site4540] — lower, 9.36
- TCTCTCATTTATTTTTGTACTTAATCCAGCACGTTT [XGTACX_site1369] — lower, 9.35
- ATATCTTTGCAAAGATGTACTTGTAAAAATATATGA [XGTACX_site768] — lower, 9.08
- TATATATATATATATATACACACGTATATATATACA [CACACA_site4155] — lower, 9.5
- TAATATCAATATAAAGTACACACTATAGTATGTATT [CACACA_site2280] — lower, 9.45
- TAAAAGTAAAGACATGCATGCATTGGTATCTTTTAC [TGCATGCA_site665] — lower, 9.1
- GACCCACTTTTCTGCACACATAAAAAATATATAAAT [CACACA_site4483] — higher, 9.76
- TATAATAAAACTTTTACACACTTTAAAAAAAAAAAA [CACACA_site6392] — lower, 9.19
- TTTATATTTAAATATATATGAGAAAACACAAAATAT [TGCATGCA_negctrl_site211] — lower, 9.4
- TAGCGGCGGTATCATGCACACGTATATATTGTAACA [CACACA_site8453] — lower, 9.36
- AACATGTATATATTATGTACATATGTTAAAATGATA [XGTACX_site6217] — lower, 9.3
- ATAGTTTTATATAAATGTACAAATGATTTCAAATAG [XGTACX_site8236] — lower, 9.09
- TTACCTTTTTCTAATGGTACACATAAAATATCATTT [XGTACX_site6825] — lower, 9.11
- TTTTCTTACACGAATTTTAAATTCAATATTAAACAT [CACACA_negctrl_site286] — lower, 8.98
- GAGTTAATTTTTTCGTGTACTTGAAAATATTTTTTT [XGTACX_site6392] — lower, 9.27
- TTAGCAACTATTACTACACACATTTGTATATAACTT [CACACA_site6850] — higher, 9.7
- GTGGAAATATAACACATTTTTTTTAATAATTATATT [TGCATGCA_negctrl_site522] — lower, 9.01
- TTTATTATAATATGTTGTACAAGACGTTTCAGTATA [XGTACX_site4486] — lower, 9.13
- AAATTATCTTAATAGGATGTTCAAGGAGAAAGATGA [CACACA_negctrl_site1032] — lower, 9.22
- TAAATTAATACCTATGCACACATTTTTTTTTTTAAA [CACACA_site1238] — lower, 9.28
- CTTAAATTTTTAAATACACACATACACCCATACACA [CACACA_site4461] — higher, 9.64
- AAACCCTATTCAATGCAATAATTTTATAATTTTTTT [TGCATGCA_negctrl_site434] — lower, 9.09
- TTTTTTTTAAATATCACACACATATAATATATTCTA [CACACA_site3668] — lower, 9.43
- AAAATATAAAAAGTCACACATATATATATTTATTTA [CACACA_site4872] — lower, 9.24
- TTGAATGAAAAAATTTGTACTCATATAAATAATTTA [XGTACX_site4628] — lower, 8.79
- CAATAATTTTTTGTGGGTACAAATAATTTTTTAAAT [XGTACX_site2407] — lower, 8.96
- AGGAGAAAAGATAAAGACTTCAAGAAAAAAAAATAA [TGCATGCA_negctrl_site258] — lower, 9.08
- TATTTTATGTAAATTGGTACACATATGTCAGTAAAA [XGTACX_site7111] — lower, 9.2
- GATGCTAAAATTTATACACACAAAAAAAAAAAATTC [CACACA_site3284] — lower, 9.42
- AAAAAAAAAAAATATACACACACACCGACACATAAA [CACACA_site9270] — higher, 10.1
- TTTTGAATATTTGGTCGTACGTAAAAATAGATAATT [XGTACX_site5755] — lower, 9.05
- TTTCATATTTTGTCCTGTTTTTTTTTTTTTTTTCTT [CACACA_negctrl_site993] — higher, 9.65
- AAAAGAATTACTTTCACACATATATATCTGTAAATA [CACACA_site5798] — lower, 9.15
- TACATATTTATATACACACACACCCTAAAAATATAT [CACACA_site6861] — higher, 10.1
- AATAATGAAGCTTATGCACACGTTCATTATTTATAT [CACACA_site5736] — lower, 9.41
- ATAATTTTTTTTTTTTTTTTTTGAAAGTAGCATATG [CACACA_negctrl_site732] — lower, 8.74
- TTATCATTTTAAATCACACACATATATATATATATA [CACACA_site2849] — lower, 9.36
- TTAAAAATGAACATATGTACATATATATATATATAT [XGTACX_site7923] — lower, 9.33

From the supplement of paper PMC11417369
